From the supplement of paper PMC9433436
± gives the standard deviation of the averaged measurements. The full ranking holds about 4,100 sequences; the median of “relative kcat/Km (krel) vs genomic leader AAAGAU” is about 1.7, and the highest 2% start at about 6.5. Only a part is listed here, and it is no random draw.

Biological target: T1, E. coli RNase P holoenzyme (M1 P RNA + rnpA protein) (UniProt P0A7Y8)
T1 sequence: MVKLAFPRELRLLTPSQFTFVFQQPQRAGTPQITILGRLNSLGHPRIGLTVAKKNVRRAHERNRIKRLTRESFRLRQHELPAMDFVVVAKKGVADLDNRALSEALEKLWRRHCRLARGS
Assay: relative kcat/Km (krel) vs genomic leader AAAGAU (relative (reference leader = 1)); higher = faster RNase P cleavage
Procedure: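 HTS-Kin: a pool of ptRNA-Met (21C construct) with all 4096 combinations of 5' leader nucleotides N(-6) to N(-1) was processed in vitro by E. coli RNase P (P RNA + rnpA/C5 protein) under multiple-turnover conditions at 37 C, pH 8, 17.5 mM MgCl2. Residual substrate was Illumina-sequenced at several fractions reacted, and relative kcat/Km (krel) was computed by internal competition kinetics, calibrated to the genomic leader (AAAGAU = 1). The listed hexamer is the varied N(-6)..N(-1) leader (DNA letters), and it sits between a fixed 5' stem-loop flank (GCAUGCACGAAAGUGCGUGCUAUGAA) and the mature tRNA-Met starting GGCUACGUAGCUCAGUUGG. Two technical replicates are averaged.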

[1] = fraction of substrate reacted: ~9-10% (9.79% repeat 1, 9.1% repeat 2)
[2] = fraction of substrate reacted: ~13-16% (15.68% repeat 1, 13.17% repeat 2)
[3] = fraction of substrate reacted: ~26-29% (28.66% repeat 1, 26.4% repeat 2)

Sequence | relative kcat/Km [1] | relative kcat/Km [2] | relative kcat/Km [3]
CCAAGC | 1.27 ± 0.25 | 1.99 ± 0.83 | 1.86 ± 0.39
GCAGAT | 1.47 ± 0.15 |  | 1.32 ± 0.4
GTCCAT | 4.26 ± 0.8 | 6.41 ± 1.5 | 
ACAGGT |  |  | 1.82 ± 1
TCGAGG | 0.256 ± 0.25 |  | 1.28 ± 0.41
GAAAGG | 1.01 ± 0.72 |  | 0.673 ± 0.51
TAACCC | 0.94 ± 0.71 | 1.128 ± 0.0073 | 1.47 ± 0.21
ATAGAA | 1.63 ± 0.45 | 2.53 ± 0.21 | 3.41 ± 1.1
TCGGGG |  |  | 0.852 ± 0.55
GGACCT | 1.27 ± 0.28 | 1.38 ± 0.52 | 1.91 ± 0.91
AACGGT |  |  | 3.55 ± 2.4
CATGCA | 0.899 ± 0.83 | 0.687 ± 0.61 | 0.795 ± 0.12
TATACA | 1.36 ± 0.29 | 2.13 ± 0.035 | 3.02 ± 1.8
ACGGGC |  | 1.13 ± 0.13 | 
TTCATC | 4.42 ± 1.8 | 5.94 ± 0.79 | 
CAGTTG |  |  | 0.967 ± 0.11
CCATGC | 1.28 ± 0.52 | 1.27 ± 0.065 | 2.07 ± 0.2
GATATG |  | 0.649 ± 0.13 | 1.97 ± 0.025
GTCCCC | 2.87 ± 2.5 | 4.17 ± 0.82 | 5.29 ± 1.4
CACAAA | 3.35 ± 0.11 | 4.93 ± 1.2 | 6.59 ± 2.9
TACCCC | 2.87 ± 0.45 | 3.43 ± 0.39 | 4.46 ± 2.2
AACCAA | 2.19 ± 1.5 | 2.84 ± 0.51 | 3.69 ± 1
CTACCG | 0.197 ± 0.063 |  | 0.611 ± 0.1
GTTTAA | 3.62 ± 0.62 | 4.49 ± 0.5 | 6.31 ± 3
AAAGTC | 0.885 ± 0.27 | 1.31 ± 0.47 | 1 ± 0.04
GGGATT |  | 1.14 ± 0.67 | 1.57 ± 0.97

Sequence | relative kcat/Km [1] | relative kcat/Km [2] | relative kcat/Km [3]
AGATAT | 2.81 ± 0.29 | 4.18 ± 0.57 | 5.87 ± 2.8
AACCTA | 2.59 ± 0.77 | 2.32 ± 0.46 | 2.95 ± 1
GCAAGA |  | 1.41 ± 0.34 | 1.56 ± 0.12
GCCTCG | 1.167 ± 0.0063 | 0.682 ± 0.082 | 1.98 ± 0.34
CGCATC | 2.76 ± 1.9 | 2.73 ± 0.72 | 4.28 ± 1.2
ACTCCA | 0.963 ± 0.67 | 1.2 ± 0.18 | 1.454 ± 0.011
GGAAAC | 1.99 ± 1.4 | 1.61 ± 1.1 | 2.23 ± 0.17
AAAGAA | 0.874 ± 0.68 | 1.13 ± 0.55 | 1.33 ± 0.36
ACTATA | 2.22 ± 0.72 | 1.75 ± 0.13 | 2.59 ± 0.73
TGCATT | 0.949 ± 0.79 | 1.93 ± 1.2 | 2.68 ± 1.7
TATAAA | 2.45 ± 1.2 | 2.7 ± 0.44 | 5.1 ± 2.2
GATGTA | 1.79 ± 0.92 | 0.859 ± 0.61 | 1.28 ± 0.19
AGTCAC | 4.5 ± 2.3 | 4.987 ± 0.032 | 7.1 ± 2.9
GTATGG |  | 0.253 ± 0.21 | 1.01 ± 0.7
AATAGT |  |  | 1.9 ± 1.9
GAAAAA | 1.1 ± 0.54 | 0.792 ± 0.45 | 2.06 ± 0.83
TTAGAC | 4.11 ± 3 | 3.64 ± 0.28 | 4.98 ± 1.7
CCCACC | 3.4 ± 0.23 | 2.73 ± 0.96 | 4.44 ± 1.5
TGGATT | 0.769 ± 0.44 | 1.29 ± 0.93 | 1.47 ± 1.3
ATAGCC | 2.13 ± 0.14 | 1.45 ± 0.049 | 2.11 ± 1
ATGCTC | 1.43 ± 0.28 | 1.17 ± 0.12 | 1.29 ± 0.029
ACCCCA | 2.32 ± 0.72 | 2.4 ± 0.059 | 2.56 ± 1.2
AGGTAG |  | 0.269 ± 0.23 | 1.16 ± 0.2
CCGCCC | 2.03 ± 0.63 | 2.23 ± 0.37 | 2.86 ± 0.96
TCTTAG | 2.09 ± 1.6 | 1.962 ± 0.0029 | 3.5 ± 0.73
GACGTG | 1.12 ± 1.1 | 0.43 ± 0.042 | 1.1 ± 0.3

Sequence | relative kcat/Km [1] | relative kcat/Km [2] | relative kcat/Km [3]
AGAACA | 2.34 ± 1.9 | 2.06 ± 0.13 | 2.48 ± 0.4
GCGAGT | 0.771 ± 0.3 |  | 0.716 ± 0.32
ACAACC | 2.09 ± 1.5 | 1.34 ± 0.51 | 1.66 ± 0.25
CTTTTT | 2.99 ± 1.5 | 3.27 ± 0.75 | 4.46 ± 1.3
CTACCC | 2.18 ± 1.1 | 1.54 ± 0.49 | 1.85 ± 0.57
TGGAGT |  |  | 1.17 ± 1.1
TGCTCT | 0.944 ± 0.33 | 1.02 ± 0.37 | 1.5 ± 0.59
CGAGTA |  |  | 1.1 ± 0.25
CTAGCA |  | 0.948 ± 0.55 | 1.05 ± 0.61
TCGTAC | 4.21 ± 1.1 | 5.11 ± 1.9 | 7.91 ± 3.5
CGTTAC | 3.84 ± 0.72 | 5.28 ± 1.9 | 7.82 ± 2.9
CTGCAA | 1.614 ± 0.0022 | 2.09 ± 1 | 2.05 ± 0.78
TCCTGC | 4.64 ± 1.6 | 5.78 ± 1.5 | 
TATTAC | 3.92 ± 1.1 | 5.68 ± 0.93 | 7.86 ± 3.4
AGGTAT | 1.3 ± 0.69 | 1.49 ± 0.76 | 1.62 ± 1
TTGATG |  |  | 1.21 ± 0.41
TGAGAA | 2.19 ± 0.97 | 2.44 ± 0.68 | 3.67 ± 1.5
TTTCAC | 3.76 ± 1.6 | 4.95 ± 0.89 | 
CATTAA | 3.66 ± 2.4 | 4.11 ± 0.12 | 5.92 ± 2
GAACCC | 1.33 ± 0.29 | 1.9 ± 0.13 | 1.77 ± 0.62
TTCTTA | 4.55 ± 1.2 | 5.9 ± 0.59 | 7.98 ± 3.2
AGGCCA | 0.698 ± 0.37 | 0.346 ± 0.19 | 0.612 ± 0.07
CAGCGA | 1.67 ± 0.34 | 1.53 ± 0.28 | 2.81 ± 1.2
GGTAAC | 1.47 ± 0.022 | 1.618 ± 0.0045 | 2.64 ± 1.5
ATAAGC | 2.05 ± 1.6 | 2.29 ± 0.24 | 2.7 ± 1
TGCCGT |  |  | 1.84 ± 1.4

Sequence | relative kcat/Km [1] | relative kcat/Km [2] | relative kcat/Km [3]
GAATGC | 2.02 ± 0.32 | 2.68 ± 0.59 | 3.53 ± 1.4
GGTCAG | 0.583 ± 0.24 | 0.751 ± 0.55 | 2.25 ± 0.64
CCAAAA | 1.12 ± 0.12 | 0.652 ± 0.028 | 1.4 ± 0.21
GGAAAG |  |  | 2.16 ± 0.072
CTTATA | 2.43 ± 1.2 | 2.02 ± 0.082 | 3.01 ± 0.78
GTTTGG | 0.235 ± 0.041 |  | 0.651 ± 0.1
CCTAGT | 0.659 ± 0.3 | 1.51 ± 0.24 | 1.57 ± 1.6
TAACCA |  | 1.18 ± 0.99 | 1.43 ± 0.052
TGACGC | 2.38 ± 0.66 | 2.52 ± 0.32 | 3.83 ± 1.3
CCAAAT | 1.85 ± 0.057 | 1.78 ± 0.41 | 2.23 ± 0.56
GTCCAA | 3.74 ± 1.3 | 4.92 ± 0.95 | 7.96 ± 3
GCCGCG | 0.48 ± 0.019 |  | 1.9 ± 0.086
AACCGT |  |  | 1.29 ± 1.1
CAACTC | 1.43 ± 0.42 | 1.08 ± 0.39 | 1.37 ± 0.27
TTGAGC | 1.16 ± 0.28 | 1.24 ± 0.71 | 1.47 ± 0.22
GCAAGC | 1.46 ± 0.85 | 1.14 ± 0.044 | 1.69 ± 0.025
CTCAGC | 4.51 ± 1.9 | 5.37 ± 1.6 | 
AATACT | 1.38 ± 0.65 | 1.67 ± 0.028 | 2.3 ± 0.83
CGCGGT |  |  | 1.83 ± 1.4
CCGTAC | 3.58 ± 1 | 4.22 ± 0.54 | 5.69 ± 2.3
AGGACC | 1.31 ± 0.32 | 1.03 ± 0.23 | 0.684 ± 0.07
GAGCAT | 2.28 ± 0.55 | 2.35 ± 0.13 | 3.52 ± 1.2
GTATTA | 1.82 ± 1.1 | 2.58 ± 0.058 | 3.31 ± 1.3
CAGGCA | 0.507 ± 0.12 | 0.66 ± 0.32 | 0.524 ± 0.2
GGACAT | 1.66 ± 0.023 | 2.29 ± 0.62 | 3.54 ± 1.4
